Test results as given in a compilation of properties of binary mixtures (doi:10.1016/j.molliq.2014.10.017).
Some of these densities may be calculated back from excess volumes.

Assay: xn = mol fraction of the nth substance listed
Conditions: 101 kPa

CCCC[n+]1ccn(C)c1.N#C[S-] + CC#N
mass density [kg/m3]
Conditions | 293.15 K | 298.15 K | 303.15 K | 308.15 K | 313.15 K
x2 = 0 | 1072.7 | 1070.3 | 1067.4 | 1064.4 | 1061.5
x2 = 0.0984 | 1066 | 1063.4 | 1060.4 | 1057.4 | 1054.4
x2 = 0.1936 | 1058 | – | 1052.3 | 1049.2 | 1046.2
x2 = 0.3061 | – | 1043.7 | 1040.5 | 1037.4 | 1034.3
x2 = 0.4068 | 1033.9 | 1030.7 | 1027.4 | 1024.2 | 1021
x2 = 0.4899 | – | 1017.5 | 1014.2 | 1010.8 | 1007.5
x2 = 0.5994 | 998.7 | 995.2 | 991.7 | 988.2 | 984.7
x2 = 0.6925 | 973.6 | 969.9 | – | 962.5 | 958.9
x2 = 0.7988 | – | 929.5 | – | 921.5 | 917.5
x2 = 0.8971 | 878.2 | 873.7 | 869.3 | 864.8 | 860.3
x2 = 0.9465 | 839.3 | 834.5 | 829.6 | 824.8 | 819.9

CCOS(=O)(=O)[O-].CC[n+]1ccn(C)c1 + CC#N
mass density [kg/m3]
Conditions | 293.15 K | 298.15 K | 303.15 K | 308.15 K | 313.15 K
x2 = 0 | – | – | – | – | 1226.7
x2 = 0.0934 | – | – | – | – | 1215.4
x2 = 0.1936 | 1215.4 | 1211.9 | 1208.4 | 1204.9 | 1201.4
x2 = 0.2906 | 1200.4 | 1196.8 | 1193.2 | 1189.7 | 1186.1
x2 = 0.397 | 1179.2 | 1175.5 | 1171.9 | 1168.2 | 1164.6
x2 = 0.4967 | 1154 | 1150.2 | 1146.5 | 1142.7 | 1138.9
x2 = 0.5938 | – | 1119 | – | 1111.3 | –
x2 = 0.7001 | – | – | – | 1065.3 | 1061.3
x2 = 0.7953 | 1020.8 | 1016.5 | 1012.1 | 1007.8 | 1003.5
x2 = 0.8951 | – | 928.7 | – | 919.2 | 914.5
x2 = 0.9516 | 863 | 858 | – | 847.9 | 842.9

CC#N + CCCC[n+]1ccn(C)c1.N#C[S-]
x1 = 1
Conditions | mass density [kg/m3]
303.15 K | 771.2
313.15 K | 760.3

CC#N + CCOS(=O)(=O)[O-].CC[n+]1ccn(C)c1
x1 = 1
Conditions | mass density [kg/m3]
298.15 K | 776.7
303.15 K | 771.2
308.15 K | 765.8
313.15 K | 760.3
